In PMC4336329 (PLoS ONE, 2015):
Hit rate of the full screen: of about 310,000 compounds, about 2,200 (0.71%) showed an effect of 50% or more. The effect is printed as a negative number. Some of the results follow.

biological target: human ether-à-go-go-related gene (hERG) potassium channel (human, UniProt Q12809); assay: primary screen, population patch clamp on CHO cells stably expressing hERG
Sequence (Q12809 whole entry, looked up): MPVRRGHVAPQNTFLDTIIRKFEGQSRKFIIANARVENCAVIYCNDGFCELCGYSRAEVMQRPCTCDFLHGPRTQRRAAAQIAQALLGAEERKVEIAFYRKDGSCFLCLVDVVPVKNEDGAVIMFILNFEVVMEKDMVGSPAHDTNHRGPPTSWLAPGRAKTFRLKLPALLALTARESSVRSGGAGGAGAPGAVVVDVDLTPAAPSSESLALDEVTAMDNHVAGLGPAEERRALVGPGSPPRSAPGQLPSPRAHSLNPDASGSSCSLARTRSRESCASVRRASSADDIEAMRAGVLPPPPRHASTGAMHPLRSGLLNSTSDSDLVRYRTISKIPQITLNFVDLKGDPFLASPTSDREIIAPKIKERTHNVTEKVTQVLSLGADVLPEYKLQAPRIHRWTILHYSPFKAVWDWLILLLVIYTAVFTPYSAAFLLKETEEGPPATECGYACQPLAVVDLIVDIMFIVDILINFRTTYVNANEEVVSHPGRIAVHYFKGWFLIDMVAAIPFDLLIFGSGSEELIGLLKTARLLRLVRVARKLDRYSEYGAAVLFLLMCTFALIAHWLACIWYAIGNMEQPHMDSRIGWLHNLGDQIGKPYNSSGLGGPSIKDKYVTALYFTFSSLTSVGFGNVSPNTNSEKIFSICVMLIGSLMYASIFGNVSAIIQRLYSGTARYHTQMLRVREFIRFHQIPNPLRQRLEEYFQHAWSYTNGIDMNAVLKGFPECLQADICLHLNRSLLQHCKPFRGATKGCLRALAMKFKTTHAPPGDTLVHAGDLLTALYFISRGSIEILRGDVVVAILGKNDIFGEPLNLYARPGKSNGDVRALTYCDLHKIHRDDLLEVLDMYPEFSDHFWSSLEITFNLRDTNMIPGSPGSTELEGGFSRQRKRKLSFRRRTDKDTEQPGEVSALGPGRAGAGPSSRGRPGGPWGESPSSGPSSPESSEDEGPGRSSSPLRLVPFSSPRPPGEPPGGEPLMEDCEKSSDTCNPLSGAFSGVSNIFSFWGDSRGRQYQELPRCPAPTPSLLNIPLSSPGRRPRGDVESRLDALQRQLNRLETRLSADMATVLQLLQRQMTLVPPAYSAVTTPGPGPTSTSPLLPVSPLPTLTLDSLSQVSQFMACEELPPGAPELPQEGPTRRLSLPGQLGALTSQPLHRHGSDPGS

Row | SMILES | hERG current change (%, negative = inhibition) at 1uM [%]
1 | O=C(O)CCn1cc(/C=C/C(=O)c2ccc(Cl)cc2)c(-c2ccc(Br)cc2)n1 | 11.7
2 | CN(C)C=O.COc1ccc(-n2cnnc2SCC(=O)Nc2ccccc2F)cc1 | -1.5
3 | CCCCS(=O)c1snnc1C (stereo not shown) | 14.5
4 | O=C(COC(=O)c1ccccc1SCC(=O)N1CCCC1)Nc1ccccc1C(F)(F)F | -0.929
5 | Cc1cn(C2CC(OC(=O)C(C)C)C(CO)O2)c(=O)[nH]c1=O (stereo not shown) | 2.33
6 | CCOc1ccc(NC(=O)CC2C(=O)N(c3cccc(OC)c3)C(=O)N2C(C)C)cc1 (stereo not shown) | 4.4
7 | O=S(=O)(N1CCCCC1)n1nnc2ccccc21 | -5.85
8 | Cn1c2ccccc2c2c(C(=O)N3CCN(c4ccc(F)cc4)CC3)cn(C3CCCC3)c(=O)c21 | 4.09
9 | O=C1Nc2ccc(NS(=O)(=O)c3cccs3)c3cccc1c23 | -7.05
10 | Cc1ccc(NC(=O)CSc2nc3[nH]c(=O)cc(O)c3s2)c(Br)c1 | -2.88
11 | COc1ccc(C2C/C(=N\O)C(C)(C)O2)cc1 (stereo not shown) | 9.8
12 | COc1ccc(CCNS(=O)(=O)c2cn(C)cn2)cc1OC | 17.2
13 | CC(OC(=O)C1CC(O)CN1S(=O)(=O)c1ccccc1[N+](=O)[O-])C(=O)N1CCCCC1 (stereo not shown) | 1.72
14 | Cc1cc2nc(-c3ccc(SCc4ccc(C(=O)O)cc4)nc3)[nH]c2cc1C | 14.5
15 | COc1ccc2cc(S(=O)(=O)c3ccccc3)c(=O)oc2c1 | 10.6
16 | COc1ccc(OC)c(NC(=O)Cn2cc(C(=O)c3ccco3)c3ccccc32)c1 | -7.04
17 | CCS(=O)(=O)N1CCN(C(C)CCc2ccccc2)CC1 (stereo not shown) | 12.2
18 | C/C(=N\NC(=O)c1ccncc1)C12CC3CC(CC(C3)C1)C2 | 11.3
19 | Cc1cc(C(=O)CSc2ccc(F)cc2)cc(C)c1OC(=S)N(C)C | 5.31
20 | CN1CCN(C(=O)CCC(=O)NCc2ccc(F)cc2)CC1 | 9.84
21 | COc1ccc(-c2nnn(CC(=O)NCc3cccs3)n2)cc1OC | 24.3
22 | COCC(=O)NCc1ccc2c(c1)OCO2 | 3.34

Row | SMILES | hERG current change (%, negative = inhibition) at 1uM [%]
23 | COc1cc(OC)cc(C(=O)N[C@H](C(=O)Nc2nc(-c3ccc(F)c(F)c3)cs2)C(C)C)c1 | 10.8
24 | O=C(Nc1nnc(C2=COCCO2)o1)c1ccc(Br)cc1 | 10.1
25 | Cc1ccc2[nH]c(C(=O)O)c(NC(=O)CN3CCN(c4cccc(C)c4C)CC3)c2c1.Cl | 14.5
26 | S=C(Cc1ccc(-c2ccccc2)cc1)N1CCOCC1 | 3.74
27 | O=C(N/N=C/c1cccc(OC(=O)N2CCOCC2)c1)c1cccs1 | 10.5
28 | CC(=O)c1ccc(NC(=O)c2ccc(NC(=O)CCS(=O)(=O)c3cccs3)cc2)cc1 | 12.5
29 | COCCN1Cc2cccc(C(=O)N3CCN(c4cc(C)ccc4C)CC3)c2C1=O | 1.31
30 | CN(C(=O)/C=C/c1cnc2ccccc2c1)C1CCCCC1 | 6.76
31 | CC(c1ccccc1)N1C(=O)NC(NC(=O)c2cccnc2)(C(F)(F)F)C1=O (stereo not shown) | 8.94
32 | O=c1[nH]c(CN2CCOCC2)nc2ccccc12 | 9.48
33 | CN(CC(=O)Nc1ccc(Cl)c(Cl)c1)C(=O)CN1C(=O)NC2(CCCC2)C1=O | 0.916
34 | COC(=O)C1(c2ccccc2)NC(c2ccc(O)cc2)C2C(=O)N(c3ccc4c(c3)OCO4)C(=O)C21 (stereo not shown) | -0.305
35 | CC(C)OC(=O)c1nnc(Cc2ccc(Cl)cc2)o1 | 9.35
36 | Cc1nc2nc(-c3ccco3)[nH]n2c(=O)c1Cc1ccccc1 | -12
37 | CC(C)c1ccc(N(CC(=O)O)S(=O)(=O)c2cccnc2)cc1 | 6.39
38 | COc1ccc([C@@H]2CC=C(C(=O)O)[C@H](c3cccc(Cl)c3)N2S(=O)(=O)c2ccc(Cl)cc2)cc1 | 15.2
39 | c1csc(Cc2nn3c(-c4n[nH]c5c4CCC5)nnc3s2)c1 | -1.46
40 | COc1ccc(/C=C/C(=O)NC2CCCCCCC2)cc1S(=O)(=O)N1CCOCC1 | 8.8
41 | CCNC(=O)COc1ccc(S(=O)(=O)Nc2ccccc2)cc1 | 0.774
42 | COc1ccc([C@@H]2C=C(C(=O)O)O[C@H](OCCCCO)C2)cc1 | 12.7
43 | C#Cc1ccc([C@@H]2C=C(C(=O)N3CCOCC3)O[C@H](OCc3ccc(CO)cc3)C2)cc1 | 6.25
